Assay results reported in PubChem BioAssay AID493208 (National Center for Advancing Translational Sciences (NCATS), 2011).
In all, about 44,000 compounds went through this assay and about 340 (0.77%) were called active. Inconclusive results (about 5%) are left out. The call rests on the fitted dose curve; in most records, active means well fitted inhibition curve with a large enough effect; inconclusive means small, poorly fitted or top-dose-only effect; inactive means flat fitted curve, though single readings scatter. The list shows a part of the results.

test: Acumen qHTS Assay for Inhibitors of the mTORC1 Signaling Pathway in MEF (Tsc2-/-, p53-/-) Cells: Sytravon; conditions: phospho-rpS6 immunofluorescence/PI, 24 h; series mostly up to 38.3 µM; activity change, negative = inhibition: at the top concentration; further: nearly all actives have a fitted effect of over 50% in size;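 on activity change, negative = inhibition: plate controls were DMSO for no effect and rapamycin for full effect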
Procedure, shortened: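 Immunofluorescence of rpS6 phosphorylation in Tsc2-/-, p53-/- MEFs after 24 h compound exposure, normalized to propidium iodide signal. Activity is expressed as % positive cells, thresholded with 7.5 nM rapamycin.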
Potency means the concentration at half of the fitted maximal effect.

Activity change, negative = inhibition, inactive:
Cc1cccc(C(=O)Nc2nnc(S(=O)(=O)N3CCC(C)CC3)s2)c1 9.38%, O=C(CCC(=O)N1CC2CCCN2c2ccccc21)NCc1ccccc1F (centres undefined) -2.66%, Cc1cccc(OCC(=O)OCc2cc(=O)n3nc(C4CC4)sc3n2)c1 -5.25%, O=C(C1CCN(S(=O)(=O)c2cccc3nonc23)CC1)N1CCN(c2ccc(F)cc2)CC1 -6.67%, CCOc1ccc(CNC(=O)CCS(=O)(=O)c2cc3c4c(c2)CCN4C(=O)CC3)cc1 5.23%, CCOC(=O)c1c(C)oc2ncnc(Nc3ccc(CC)cc3)c12 5.9%, CC1CCN(C(=O)CN2CCSc3ccc(S(=O)(=O)N(C)C)cc32)CC1 7.26%, COc1ccc(/C=C/c2nc(-c3ccccc3O)n(-c3ccccc3)n2)cc1OC 3.55%, Cc1cc(C)cc(OC(=O)c2cc(-c3ccc4c(c3)OCCO4)on2)c1 1.39%, CCC(=O)N1CCc2cc(S(=O)(=O)NCCC(=O)NC(C)c3ccccc3)ccc21 (centres undefined) -0.591%, CC(=O)c1ccc(NC(=O)C(Cc2ccccc2)NS(=O)(=O)c2ccc3c(c2)CCC(=O)N3)cc1 (centres undefined) 1.53%, COc1ccc(CNC(=O)Cn2nnc(-c3ccc(C(F)(F)F)cc3)n2)cc1 1.72%, COc1ccc(C(=O)c2cn(Cc3ccccc3F)c3cc4c(cc3c2=O)OCO4)cc1 -14.6%, O=c1cc(-c2ccccc2)n2c(SCc3ccc(Cl)cc3)nnc2[nH]1 -0.903%, CC(C)C(=O)NCC(c1ccc2c(c1)OCO2)N1CCN(c2ccccc2F)CC1 (centres undefined) -10.7%, COc1ccc(-n2c3c(cc(-c4nc(-c5ccc(C)cc5)cs4)c2=O)C(=O)CC(C)(C)C3)cc1 -7.98%, COc1ccccc1C(=O)Nc1ccc2oc(-c3cccc(Cl)c3Cl)nc2c1 -1.01%, Cc1sc2c(c1C)c(=O)n(-c1ccc(Cl)cc1)c(=O)n2Cc1cc(=O)n2ccccc2n1 -0.455%, CC1CCCN(C(=O)c2cc3c(=O)n(C)c4ccccc4c3s2)C1 (centres undefined) 3.18%, COc1ccc(C2C(C(N)=O)=C(C)Nc3nc(SCc4ccccc4Cl)nn32)cc1OC (centres undefined) -12.1%, CCOc1ccc(C(=O)NCc2nc3cccnc3n2Cc2ccc(F)cc2)cc1OCC -14%, Cc1ccc(CNC(=O)c2nc(SCc3ccccc3F)ncc2Cl)cc1 3.23%, CCOC(=O)c1ccccc1NC(=O)CSc1nc2ccncc2[nH]1 -13.6%, O=C(NCc1ccco1)c1ccc(Cn2c(SCc3ccc(F)cc3)nc3cccnc32)cc1 -15.1%, CCC(=O)Nc1cc(-c2cccc(C)c2)nn1-c1ccccc1 8.48%, COc1ccc(N2CCN(Cc3nc4c(c(=O)[nH]c(=O)n4C)n3Cc3ccc(Cl)cc3)CC2)cc1 -21.8%, Cc1cccc(-c2nc(SCC(=O)N3CCc4ccccc43)c3c(=O)n(C)c(=O)n(C)c3n2)c1 -6.62%, CCOC(=O)CNc1nc(Oc2ccc(=O)n(C)n2)nc(N(CC)CC)n1 8.64%, CCOc1ccc(-n2c(SCC(=O)N3CCc4ccccc43)nc3c([nH]c4ccccc43)c2=O)cc1 -0.401%, Cc1cccc(-c2nnc(SCc3cc(=O)c4cccc(Cl)c4[nH]3)n2C)c1 1.69%, COc1cccc2c1ncc1c(-c3ccc(C)cc3)nn(-c3cccc([N+](=O)[O-])c3)c12 0%, CCCN(Cc1cccs1)C(=O)Nc1ccc(OCC)cc1 -1.45%, COc1ccc(NC(=O)Cn2c(=O)c(-c3cc(C)ccc3NC(C)=O)nc3ccccc32)c(OC)c1 -0.294%, Cc1ccc(C2CCN(C(=O)c3cnn(-c4cccc(Cl)c4)c3C3CCN(C(=O)OC(C)(C)C)CC3)C2)cc1 (centres undefined) -26.8%, COc1ccc(NC(=O)N(CCC(C)C)C(C)c2cccs2)c(OC)c1 (centres undefined) -14.3%, O=C(COc1ccccc1)NCc1ccc2c(c1)CCN2C(=O)c1ccc(Cl)cc1 -11.5%, Cc1cc(=O)[nH]c2nnc(SCC(=O)Nc3ccc(OC(F)(F)F)cc3)n12 -0.273%, COc1ccc(OC)c(NC(=O)c2cc(-c3ccc(Cl)s3)nc3ccccc23)c1 -2.59%, NCc1nc2cccnc2n1Cc1ccccc1Cl -18.8%, COc1ccccc1CNC(=O)CCc1c(C)nn(-c2ccc(N3CCOCC3)nn2)c1C 2.61%, COc1ccc(NC(=O)CSc2nc3c([nH]c4ccccc43)c(=O)n2-c2ccccc2)c(OC)c1 8.83%, O=C(NCc1ccco1)c1ccc2c(c1)N(Cc1ccccc1)C(=O)c1ccccc1S2(=O)=O -10.7%, COCCNc1ncnc2c1c(-c1ccccc1)cn2-c1ccc(C)c(Cl)c1 10.2%, COc1ccc(-n2ncc3c(NC(C)(C)CO)ncnc32)cc1 6.35%, CCOc1ccc(NC(=O)Cn2c3ncccc3c(=O)n2-c2ccc(CC)cc2)cc1 3.48%, Cc1ccc(CNC(=O)c2oc3c(c2C)-c2nn(Cc4ccc(Cl)cc4)cc2CC3)cc1 2.55%, CCN(CC)S(=O)(=O)c1ccc(NC(=O)NCc2noc3ccc(C)cc23)cc1 -17.7%, Cc1nc2cccnc2n1C1CCN(S(C)(=O)=O)CC1 5.4%, Cc1cc(S(=O)(=O)C(CNC(=O)c2ccc(OC(C)C)cc2)c2cccs2)ccc1F (centres undefined) 5.35%, Cc1ccc(-c2c(CN3CCN(c4cccc(C)c4)C(C)C3)csc2C)cc1 (centres undefined) 4.31%, Cc1ccc2onc(CC(=O)N3CCN(c4ccc(F)cc4)CC3)c2c1 -10.7%, CC(C)CC(=O)N1c2nc(C(C)C)nn2C2(CCCCC2)[C@@H]2CCCC[C@@H]21 -0.144%, Cc1c(Cl)cccc1NC(=O)CSc1ncc2c(n1)-c1ccccc1N(C)S2(=O)=O 2.81%, Cc1cccc(C)c1OCC(=O)Nc1ncn[nH]1 -9.64%, CCN(CC)CCNC(=O)c1c(C)oc2ncnc(N3CCOCC3)c12 -9.4%, CCOc1ccc(CCNC(=O)c2cnc3sc(N(CC)CC)nn3c2=O)cc1OCC -0.971%, COC(=O)c1c(NC(=O)c2cc3ccccc3c(=O)o2)sc2c1CCCC2 -12.6%, COc1ccc(CCNC(=O)c2ccc(Nc3nc4ccccc4n4nnnc34)cc2)cc1OC -0.876%, CC(=O)c1cccc(NC(=O)C(C)n2c(=O)cc(C)c3c(C)nn(-c4ccccc4)c32)c1 (centres undefined) 0%, COc1ccc(NC(=O)Cn2nnc(C(=O)NCCc3ccccc3)c2N)cc1 1.82%, COc1ccccc1NC(=O)N(Cc1nnc2n1CCCCC2)c1ccc(F)cc1 3.87%, COc1ccc(OC)c(CNS(=O)(=O)c2ccc3c(c2)CCCN3C(C)=O)c1 0.594%, O=C(NCCc1ccccc1)c1ccc2c(c1)N(Cc1ccc(F)cc1)C(=O)c1ccccc1S2(=O)=O -1.8%, CC(C)c1ccc(NC(=O)c2cc3sc(Cl)cc3n2C)cc1 -9.04%, Cc1cc(C)cc(NC(=O)N2CCC3(CC2)Oc2ccccc2C(=O)N3Cc2ccccc2F)c1 -1.53%, O=C(CCS(=O)(=O)c1cccc2nonc12)Nc1c(F)cccc1F 2.71%, CC1CCc2c(sc3nc(-c4cc5cc(Br)ccc5oc4=O)[nH]c(=O)c23)C1 (centres undefined) -25.5%, CCOc1ccc(NC(=O)c2c(NCc3cccnc3)sc3c2CCCC3)cc1 -5.9%, COc1ccc(Br)c(C(=O)Nc2cc3c(cc2N2CCOCC2)n(C)c(=O)n3C)c1 -1.19%, O=S(=O)(Nc1ccc(Br)cc1F)c1ccc2nc(-c3ccccc3)[nH]c2c1 0.676%, COc1cccc(N2CCN(C(=O)c3cccc(-n4c(C)nc5cccnc54)c3)CC2)c1 -11.4%, CCOC(=O)c1ccc(CN(Cc2ccc(F)cc2)S(=O)(=O)c2ccc(F)c(C(=O)Nc3ccc(Cl)cc3F)c2)cc1 4.01%, COc1ccc(CCn2c(=O)c3cccnc3n(CC(=O)Nc3ccc(C)c(F)c3)c2=O)cc1OC -10.6%, C=Cc1ccc(Cn2c(C(=O)O)c(CNC3CCCCC3)c3ccc(C)cc32)cc1 -0.998%, COc1ccc(-c2nnc(SCC(=O)Nc3cccc(C(F)(F)F)c3)nc2-c2ccc(OC)cc2)cc1 1.19%, CN1C(=O)Cc2cc(S(=O)(=O)N3CCN(c4ccc(Cl)cc4)CC3)ccc21 -5.68%, CCOC(=O)c1[nH]c2c(c1Cc1ccccc1C)C(=O)CC(c1cc(OC)ccc1OC)C2 (centres undefined) -19%, O=C(COc1ccccc1)NCCc1csc(-c2ccc(Cl)cc2)n1 3.51%, COc1cccc(Cn2c(CNS(=O)(=O)c3ccc(F)c(Cl)c3)nc3cccnc32)c1 -4.03%, O=C(c1ccc2c(c1)OCCO2)N(Cc1cccnc1)c1nc2c(Cl)cccc2s1 0%, CCOc1ccc(OCC)c(NC(=O)C2CCN(S(=O)(=O)c3c(C)noc3/C=C/c3ccccc3F)CC2)c1 -12.2%, CC(C)COc1ccc(C(=O)Nc2cc3nn(-c4ccccc4)nc3cc2Cl)cc1 -1.29%, CCc1nn2c(=O)cc(COc3ccc(/C=C(\C#N)C(=O)Nc4ccc(F)cc4)cc3OC)nc2s1 -20%, O=S(=O)(NCC(c1cccs1)S(=O)(=O)c1ccccc1)c1ccc(F)cc1 (centres undefined) -2.01%, CCOC(=O)c1ccc(NC(=O)C2CCN(S(=O)(=O)c3ccc4c(c3)CCCC(=O)N4)CC2)cc1 -1.6%, CCOc1ccccc1CNC(=O)c1cc(-c2ccc(Cl)s2)nc2ccccc12 -21.7%, CCn1c2ccccc2c2nnc(SCC(=O)Nc3ccccc3OC)nc21 -2.75%, CCc1ccc(NC(=O)Cn2c(=O)n(CCC(=O)N3CCc4ccccc4C3)c(=O)c3ccccc32)cc1 -6.58%, Cc1ccccc1-c1nn2c(=O)cc(CN3CCN(C(=O)/C=C/c4ccccc4)CC3)nc2s1 0.414%, COc1ccc(-c2cc(NCc3ccc(F)cc3)n3cnnc3n2)cc1 2.56%, O=C(Cc1ccccc1)Nc1sc2c(c1C(=O)Nc1ccccc1Cl)CCC2 1.84%, Cc1nn(CC(=O)NCCc2ccc(Cl)cc2)c(=O)c2cc3cc(F)ccc3n12 -3.55%

Potency, active:
CCOC(=O)c1ccc(N2C(=O)c3n[nH]c(C)c3C2c2cccc(Br)c2)cc1 (centres undefined) 16.5 µM, CN(CCCNC(=O)c1cc2c(Cl)nc3ccccc3c2s1)Cc1ccccc1 13.1 µM
